Assay results: PubChem BioAssay AID485344 (National Center for Advancing Translational Sciences (NCATS), 2010)
The campaign covered roughly 340,000 compounds. About 6,900 (2%) were called active. No stated cut-off is given here; in the data, active means inhibition above about 30%; inactive means below that, where a call was filed. Only a part is listed here, and it is no random draw. Entries without a call were filed so in the source.

biological target: D(2) dopamine receptor (Homo sapiens) (UniProt P14416); assay: HTS Assay for Allosteric Antagonists of the Human D2 Dopamine Receptor: Primary Screen for Antagonists; conditions: HEK293 TREx D2 cells, calcium flux, dopamine EC80; at 10 µM; stronger effect = higher value; further: 0% is about no effect
Outline: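 Calcium mobilization kinetics were recorded at 1 s intervals in tetracycline-induced HEK293 T-REx D2 cells, first for 180 s after compound addition and then 180 s after EC80 dopamine.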

UniProt P14416, sequence (P14416 whole entry, looked up): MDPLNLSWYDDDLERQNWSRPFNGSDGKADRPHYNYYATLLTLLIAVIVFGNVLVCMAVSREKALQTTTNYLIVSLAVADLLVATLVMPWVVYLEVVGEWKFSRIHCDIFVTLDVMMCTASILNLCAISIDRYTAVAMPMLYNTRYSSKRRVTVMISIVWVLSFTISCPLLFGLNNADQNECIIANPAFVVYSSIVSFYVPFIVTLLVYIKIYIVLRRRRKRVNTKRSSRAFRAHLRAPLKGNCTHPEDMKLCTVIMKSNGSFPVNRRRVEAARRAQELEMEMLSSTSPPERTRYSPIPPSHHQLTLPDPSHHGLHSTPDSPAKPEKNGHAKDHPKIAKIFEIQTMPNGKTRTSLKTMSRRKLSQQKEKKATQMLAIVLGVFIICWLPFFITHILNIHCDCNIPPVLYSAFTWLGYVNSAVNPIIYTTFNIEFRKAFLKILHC

SMILES	inhibition
COc1ccc(C2CC(=O)Nc3c2c(=O)nc2c(C)cccn32)cc1OC (stereo not given)	-9.62%
CCCCC1CCC(C(=O)N2CC(=O)Nc3ccc(F)cc3C2c2ccc(F)cc2)CC1 (stereo not given)	1.06%
COc1ccc(-n2c(SCC(=O)NCc3cccs3)nnc2-c2ccoc2C)cc1	active: 42.5%
CCN1CCN(CCCNC(=O)c2ccc3nc(Cc4ccc(OC)cc4)oc3c2)CC1	-12.9%
O=C(Nc1ccc(C(=O)N2CCN(c3ccc(F)cc3)CC2)cc1)c1nsc2ccccc12	-0.0671%
CCOc1cc(CNS(=O)(=O)c2ccc3c(c2)CC(=O)N3C)cc(OCC)c1OCC	7.31%
Cc1cc(C)n(C(C)CC(=O)NCc2ccccc2C)n1 (stereo not given)	3.92%
CCCCN(CCCC)c1ncnc2c1cnn2-c1cccc(C)c1	23.9%
CC(=O)Nc1ccc(S(=O)(=O)N2CCC(c3ccncc3)CC2)cc1	-9.44%
COc1ccc(Br)cc1C(=O)Nc1ccc2oc(-c3cccnc3)nc2c1	-24.3%
CCOC(=O)c1c(S(=O)(=O)N2CCCC(C(=O)Nc3ccc(OCC)cc3)C2)c(C)n(C)c1C (stereo not given)	-3.44%
Cc1ccc(S(=O)(=O)c2cn(Cc3cccc(F)c3)c3cc(N4CCCC4)c(F)cc3c2=O)cc1	-9.66%
CCOc1ccc(NC(=O)c2cc3sc(Cl)cc3n2CC)cc1	-5.36%
CCCOc1ccccc1-c1nc(SCC(=O)c2ccccc2)n[nH]1	-14.4%
Cc1ccc(-c2cc(NC(=O)c3ccccc3Cl)on2)cc1	-0.681%
Cc1cccc(S(=O)(=O)NCCc2cn3ccccc3n2)c1	active: 32%
O=C(CCN1CCN(c2ccc(Cl)cc2)CC1)Nc1ccccc1F	active: 35.9%
COCCn1c(C)cc(O)c(C(c2ccccc2)N2CCC(C)CC2)c1=O (stereo not given)	-3.13%
CN(CC(=O)N1CC=C(c2ccccc2)CC1)S(=O)(=O)c1ccc2c(c1)c(=O)n(C)c(=O)n2C	active: 30.8%
COc1ccc(N2C(=O)CSC23C(=O)N(C)c2ccccc23)cc1Cl (stereo not given)	-2.94%

SMILES	inhibition
CCc1ccccc1Nc1cc(C(=O)NCc2ccc(C)cc2)c2ccccc2n1	-1.23%
O=C(c1c2c(nc3ccccc13)C(=O)N(C1CCCCC1)C2)N1CCN(c2ccc(F)cc2)CC1	1.95%
COC(=O)c1c(NC(=O)c2cc(=O)c3c(C)cc(C)cc3o2)sc2c1CCCC2	3.95%
O=C(CN(CC1CCCO1)C(=O)CNS(=O)(=O)c1ccc(F)cc1)NCc1ccc(F)cc1 (stereo not given)	active: 36.6%
Cc1cccc(NC(=O)CN(c2ccc(C(C)C)cc2)S(=O)(=O)c2c(C)nn(C)c2C)c1C	-6.81%
Cc1ccc(-n2ncc3c(N4CCN(c5ccccc5)CC4)ncnc32)cc1C	-1.06%
COc1ccc(N(C)C(=O)Cn2cnc3sc(C)c(S(=O)(=O)N4CCN(c5ncccn5)CC4)c3c2=O)cc1	28.3%
Cc1ccc(-c2nc3cccc(C)n3c2Nc2ccc3c(c2)OCCO3)cc1	-5.22%
CCOCCCn1c(=N)c(C(=O)NC2CCCCC2)cc2c(=O)n3ccccc3nc21	0.804%
O=C(NCCS(=O)(=O)N1CCN(c2cccc(Cl)c2)CC1)C(c1ccccc1)c1ccccc1	-19.6%
Cc1ccc(Cl)cc1NC(=O)CN1C=NS(=O)(=O)c2ccccc21	-5.55%
CCc1ccc(S(=O)(=O)Nc2ccc3c(c2)sc(=O)n3C)cc1	-5.6%
CCc1nn(CCCC(=O)NCc2ccccc2OC)c(=O)c2cc3occc3n12	4.6%
Cc1cccc(Cn2c(=O)n(-c3cc(C)cc(C)c3)c(=O)c3oc4ccccc4c32)c1	3.35%
Cc1cc(C)c2c(n1)nn1c(C)c(CCC(=O)Nc3cccc(C)c3C)c(C)nc21	0.65%
Cc1ccc(Cl)cc1N1CCN(C(=O)C2CCN(S(=O)(=O)c3cn(C)cn3)CC2)CC1	11.6%
CC1CCN(CCCCOc2ccccc2-c2ccccc2)CC1	active: 83.8%
COc1ccc(CCNC(=O)c2ccc(Cn3c(=O)c4cccn4c4cccnc43)cc2)cc1OC	9.25%
Cc1cc(C(=O)N2CCN(c3ccccc3F)CC2)c2c(C)nn(-c3ccccc3)c2n1	0.489%
Cc1cc(C)n2nc(CNS(=O)(=O)c3cccc(Cl)c3)nc2n1	0.743%

SMILES	inhibition
CCC(C)NC(=O)c1ccc(CNS(=O)(=O)c2ccc3c(c2)C(C)(C)C(=O)N3C)cc1 (stereo not given)	11.6%
Cc1cc(C)c2oc(-c3cccc(NC(=O)c4cccc(F)c4)c3C)nc2c1	-6.85%
Cc1cccc(NC(=O)CSc2nc(-c3cccs3)nc3cc(=O)[nH]n23)c1	5.03%
Cc1cccc(-c2nc3c4ccccc4nc(N4CCN(c5cccc(Cl)c5)CC4)n3n2)c1	-8.99%
COc1ccc(-c2c3c(nc4sc(C(=O)Nc5cccc(OC)c5)c(N)c24)CC(C)(C)CC3=O)cc1	-4.97%
CCc1ccccc1NC(=O)Cn1c(=O)n(CCc2ccccc2)c(=O)c2sc3ccccc3c21	0.907%
O=C(Nc1ccccc1Cl)N1CCC2(CC1)Oc1ccccc1C(=O)N2Cc1ccc(F)cc1	11.2%
O=C(Nc1ccc(Br)cc1)c1ccc2ncsc2c1	active: 36.2%
CC(=O)c1ccc(NC(=O)c2ccc(-c3nc(CSc4ccc(C)cc4)c(C)o3)cc2)cc1	-0.046%
CCc1ccc(NC(=O)c2cnc3c(-c4ccccc4)c(C)nn3c2C)cc1	1.83%
COc1cccc(Cn2c(C)c(CNCc3cccc(C)c3)c(C(=O)O)c2C)c1	-6.58%
COc1ccc(NC(=O)c2ccc(-c3ccccc3Cl)o2)cc1	active: 41.8%
COc1ccc(C2CC(=O)c3cc(-c4nc(-c5cccc([N+](=O)[O-])c5)cs4)c(=O)n(-c4cccc(C)c4)c3C2)cc1 (stereo not given)	-0.488%
Cc1ccc(NC(=O)CSc2nc3ccc(NC(=O)c4ccco4)cc3s2)cc1	9.32%
Cc1ccc(NC(=O)CSc2nc(=O)n(Cc3ccccn3)c3c2CCC3)cc1F	-18.3%
COc1cc(C(=O)NCc2ccc3c(c2)CCN3C(=O)c2ccc(Cl)cc2)cc(OC)c1OC	17.3%
COC(=O)c1c(NC(=O)Cc2coc3cc(C)cc(C)c23)sc2c1CCC2	-0.974%
COCCNC(=O)c1c(NC(=O)c2cc(=O)c3cc(C)cc(C)c3o2)sc2c1CCCC2	-2.74%
Cc1ccc(S(=O)(=O)NC(=O)c2ccc(Br)o2)c(C)c1	active: 31.5%
Cc1ccc(C2NC(=O)c3n[nH]c(-c4cccs4)c32)cc1 (stereo not given)	1.88%
